The text below walks through data of publication PMC11514477.

Sequences of proteins named here, by UniProt entry; tags and fusion partners are left off. A change or cut given only in a name is not applied to a line headed by its entry. A line that says so, or that is headed by a name, gives the form on record, which may keep a tag or linker.
macroH2A1.2-GFP (Q9QZQ8-1, form named): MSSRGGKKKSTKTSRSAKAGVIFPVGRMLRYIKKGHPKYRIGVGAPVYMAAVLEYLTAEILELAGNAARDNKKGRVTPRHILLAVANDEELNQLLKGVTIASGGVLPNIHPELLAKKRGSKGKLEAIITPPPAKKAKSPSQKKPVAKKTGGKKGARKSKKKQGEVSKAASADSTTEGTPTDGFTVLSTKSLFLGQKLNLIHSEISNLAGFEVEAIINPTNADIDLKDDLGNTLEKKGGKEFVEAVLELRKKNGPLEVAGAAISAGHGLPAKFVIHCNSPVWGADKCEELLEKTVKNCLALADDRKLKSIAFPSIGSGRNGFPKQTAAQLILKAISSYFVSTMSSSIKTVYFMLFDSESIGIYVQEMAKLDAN
UniProt Q8CCK0: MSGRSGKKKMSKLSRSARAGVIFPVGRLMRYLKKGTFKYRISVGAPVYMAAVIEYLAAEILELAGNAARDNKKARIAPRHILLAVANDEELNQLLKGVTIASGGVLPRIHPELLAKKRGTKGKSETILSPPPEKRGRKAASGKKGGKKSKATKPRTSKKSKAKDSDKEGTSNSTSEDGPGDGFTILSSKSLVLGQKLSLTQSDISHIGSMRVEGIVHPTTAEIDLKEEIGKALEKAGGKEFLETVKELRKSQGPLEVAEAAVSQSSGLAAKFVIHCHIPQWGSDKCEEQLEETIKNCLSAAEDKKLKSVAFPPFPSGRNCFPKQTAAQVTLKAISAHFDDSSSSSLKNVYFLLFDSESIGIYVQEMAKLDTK
UniProt P97310: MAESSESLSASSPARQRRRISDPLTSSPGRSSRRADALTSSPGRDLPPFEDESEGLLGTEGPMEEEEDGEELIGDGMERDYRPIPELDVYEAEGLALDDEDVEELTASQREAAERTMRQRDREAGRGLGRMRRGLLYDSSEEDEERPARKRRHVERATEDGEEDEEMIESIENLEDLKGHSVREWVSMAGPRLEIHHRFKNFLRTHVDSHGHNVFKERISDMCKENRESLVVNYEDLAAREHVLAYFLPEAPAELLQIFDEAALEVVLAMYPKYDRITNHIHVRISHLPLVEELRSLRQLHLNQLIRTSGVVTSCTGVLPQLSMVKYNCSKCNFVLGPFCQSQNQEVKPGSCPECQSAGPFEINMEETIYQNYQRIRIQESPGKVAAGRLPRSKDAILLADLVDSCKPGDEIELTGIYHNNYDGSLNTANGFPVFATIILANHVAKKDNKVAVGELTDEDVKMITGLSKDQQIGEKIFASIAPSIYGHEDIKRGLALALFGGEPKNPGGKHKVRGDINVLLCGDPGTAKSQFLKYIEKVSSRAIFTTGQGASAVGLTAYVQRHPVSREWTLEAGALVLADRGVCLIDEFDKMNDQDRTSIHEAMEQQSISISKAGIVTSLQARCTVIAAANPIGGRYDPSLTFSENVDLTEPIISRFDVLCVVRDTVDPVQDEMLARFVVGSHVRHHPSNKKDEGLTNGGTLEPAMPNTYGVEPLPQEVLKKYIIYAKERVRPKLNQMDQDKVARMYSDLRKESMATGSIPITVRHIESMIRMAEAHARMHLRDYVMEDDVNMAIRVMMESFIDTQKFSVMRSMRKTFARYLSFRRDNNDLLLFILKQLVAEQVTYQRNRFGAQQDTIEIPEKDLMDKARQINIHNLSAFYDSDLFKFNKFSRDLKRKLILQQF

These are yes or no findings as the source states them, for the method shown. Binding seen in cells or lysates may run through a third protein. Some results given as binding are weak or reduced against the parent protein; the word gives no strength.

In test [1] the target is T1, Mcm4 (subunit of the Mcm DNA helicase complex) (mouse (endogenous in C2C12)) (UniProt P49717).
T1 sequence: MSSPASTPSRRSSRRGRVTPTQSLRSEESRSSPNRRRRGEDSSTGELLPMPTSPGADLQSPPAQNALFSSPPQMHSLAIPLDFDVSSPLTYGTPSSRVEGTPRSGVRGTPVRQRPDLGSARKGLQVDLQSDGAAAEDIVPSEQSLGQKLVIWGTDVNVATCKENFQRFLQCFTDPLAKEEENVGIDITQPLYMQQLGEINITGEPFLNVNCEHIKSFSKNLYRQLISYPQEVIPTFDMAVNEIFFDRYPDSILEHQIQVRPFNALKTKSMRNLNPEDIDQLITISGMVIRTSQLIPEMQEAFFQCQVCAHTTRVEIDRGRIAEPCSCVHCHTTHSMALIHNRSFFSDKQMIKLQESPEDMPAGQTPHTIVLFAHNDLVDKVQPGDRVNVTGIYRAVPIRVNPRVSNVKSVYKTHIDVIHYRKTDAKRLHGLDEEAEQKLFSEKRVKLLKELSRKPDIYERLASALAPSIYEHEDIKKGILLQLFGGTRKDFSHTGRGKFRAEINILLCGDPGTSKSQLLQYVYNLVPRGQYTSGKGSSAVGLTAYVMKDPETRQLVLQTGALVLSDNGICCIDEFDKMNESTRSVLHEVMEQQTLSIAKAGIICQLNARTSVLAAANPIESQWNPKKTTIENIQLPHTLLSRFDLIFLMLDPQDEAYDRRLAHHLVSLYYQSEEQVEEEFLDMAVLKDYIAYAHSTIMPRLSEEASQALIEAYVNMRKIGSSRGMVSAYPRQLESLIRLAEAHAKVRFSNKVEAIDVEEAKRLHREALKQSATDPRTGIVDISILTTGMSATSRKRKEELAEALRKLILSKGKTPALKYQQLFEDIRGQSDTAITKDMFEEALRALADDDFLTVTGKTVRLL
Kind of test: co-IP; lysates of C2C12 cells transfected with macroH2A-GFP vectors and synchronized in G1/S; endogenous Mcm4 precipitated with anti-Mcm4 on Protein G agarose beads, 2 h; anti-MIN antibody as negative control.

Test [2] concerns the target macroH2A1.2 (endogenous) (mouse (endogenous in C2C12 and MEF)) (UniProt Q9QZQ8). The test can be described thus: proximity ligation; duolink PLA in situ in mouse embryonic fibroblasts (MEF); high-content screening microscopy (Operetta), nuclear spots counted with Harmony.
Test [3] addresses macroH2A2-GFP (UniProt Q8CCK0). The test can be described thus: co-IP; lysates of C2C12 cells transfected with macroH2A-GFP vectors, synchronized in G1/early S by double thymidine arrest, 48 h after transfection; lysis buffer 20 mM Tris-HCl pH 8, 150 mM NaCl, 0.5 mM EDTA, 0.5% NP-40; GFP-binder (nanobody) beads, 4°C, 90 min; western blot for GFP and Mcm ….
Test [4] has as its target macroH2A1.2-GFP (UniProt Q9QZQ8). The test is described as above.
Test [5] concerns the target macroH2A2-V192F (GFP-tagged) (UniProt Q8CCK0). The description is as above.

On to “macroH2A1.2-GFP (from UniProt Q9QZQ8-1 1-372)”, for which the binding result in test [1] is reported as “binds”.

“macroH2A2-GFP (from UniProt Q8CCK0 1-372)”: the binding entry in test [1] is given as “no binding”.

Take “Mcm2 (subunit of the Mcm DNA helicase complex) (from UniProt P97310 1-904)”: the binding result in test [2] is given as “binds”; in test [3], “no binding”; in test [4] it was “binds”.

B1: Mcm5 (subunit of the Mcm DNA helicase complex) (protein, UniProt P49718 1-734)
chain: MSGFDDPGIFYSDSFGGDPGAEEGQARKSQLQRRFKEFLRQYRVGTDRTGFTFKYRDELKRHYNLGEYWIEVEMEDLASFDEELADHLHKQPAEHLQLLEEAAKEVADEVTRPRPAGDELLQDIQVMLKSDASPSSIRILKSDMMSHLVKIPGIIISASAVRAKATRISIQCRSCHNTLTNIAMRPGLEGYALPRKCNMDQAGRPKCPLDPYFIMPDKCKCVDFQTLKLQELPDAVPHGEMPRHMQLYCDRYLCDKVVPGNRVTIMGIYSIKKFGLNPSKGRDRVGVGIRSSYIRVLGIQVDTDGSGRSFAGSVSPQEEEEFRRLAALPNIYELISKSISPSIFGGMDMKKAIACLLFGGSRKRLPDGLTRRGDINLLMLGDPGTAKSQLLKFVEKCSPIGVYTSGKGSSAAGLTASVIRDPSSRNFIMEGGAMVLADGGVVCIDEFDKMREDDRVAIHEAMEQQTISIAKAGITTTLNSRCSVLAAANSVFGRWDETKGEDNIDFMPTILSRFDMIFIVKDEHNEERDMMLAKHVMTLHVSALTQTQAVEGEIDLAKMKKFIAYCRARCGPRLSAEAAEKLKNRYIIMRSGARQHERDSDRRSSIPITVRQLEAIVRIAEALSKMKLQPFATEADVEEALRLFQVSTLDAALSGNLSGVEGFTTQEDQEMLSRIEKQLKRRFAIGSQVSEHSIVQDFTKQKYPEHAIRKVLQLMLRRGEIQHRMQRKVLYRLK
In the case of B1, the results for the binding result in test [3] and in test [4] were “no binding” and “binds”, respectively.

B2: Mcm3 (subunit of the Mcm DNA helicase complex) (protein, UniProt P25206 1-812)
chain: MAGTVVLDDVELREAQRDYLDFLDDEEDQGIYQNKVRELISDNQYRLIVSVNDLRRKNEKRANRLLNNAFEELVAFQRALKDFVASIDATYAKQYEEFYIGLEGSFGSKHVSPRTLTSCFLSCVVCVEGIVTKCSLVRPKVVRSVHYCPATKKTIERRYSDLTTLVAFPSSSVYPTKDEENNPLETEYGLSVYKDHQTITIQEMPEKAPAGQLPRSVDVILDDDLVDKVKPGDRIQVVGTYRCLPGKKGCYTSGTFRTVLIACNVKQMSKDIQPAFSADDIAKIKKFSKTRSKDVFEQLARSLAPSIHGHDYVKKAILCLLLGGVERELENGSHIRGDINILLIGDPSVAKSQLLRYVLCTAPRAIPTTGRGSSGVGLTAAVTTDQETGERRLEAGAMVLADRGVVCIDEFDKMSDMDRTAIHEVMEQGRVTIAKAGIHARLNARCSVLAAANPVYGRYDQYKTPMENIGLQDSLLSRFDLLFIMLDQMDPEQDREISDHVLRMHQYRAPGEQDGDALPLGSSVDILATDDPDFTQDDQQDTRIYEKHDSLLHGTKKKKEKMVSAAFMKKYIHVAKIIKPTLTQESAAYIAEEYSRLRSQDSMSSDTARTSPVTARTLETLIRLATAHAKARMSKTVDLQDAEEAVELVQYAYFKKVLEKEKKRKKASEDESDLEDEEEKSQEDTEQKRKRRKTHAKDGESYDPYDFSEAETQMPQVHTPKTDDSQEKTDDSQETQDSQKVELSEPRLKAFKAALLEVFQEAHEQSVGMLHLTESINRNREEPFSSEEIQACLSRMQDDNQVMVSEGIVFLI
On to B2, for which the results for the binding entry in test [5], in test [3] and in test [4] were “binds”, “no binding” and “binds”, respectively.

B3: Mcm4 (subunit of the Mcm DNA helicase complex) (protein, UniProt P49717 1-862)
chain: MSSPASTPSRRSSRRGRVTPTQSLRSEESRSSPNRRRRGEDSSTGELLPMPTSPGADLQSPPAQNALFSSPPQMHSLAIPLDFDVSSPLTYGTPSSRVEGTPRSGVRGTPVRQRPDLGSARKGLQVDLQSDGAAAEDIVPSEQSLGQKLVIWGTDVNVATCKENFQRFLQCFTDPLAKEEENVGIDITQPLYMQQLGEINITGEPFLNVNCEHIKSFSKNLYRQLISYPQEVIPTFDMAVNEIFFDRYPDSILEHQIQVRPFNALKTKSMRNLNPEDIDQLITISGMVIRTSQLIPEMQEAFFQCQVCAHTTRVEIDRGRIAEPCSCVHCHTTHSMALIHNRSFFSDKQMIKLQESPEDMPAGQTPHTIVLFAHNDLVDKVQPGDRVNVTGIYRAVPIRVNPRVSNVKSVYKTHIDVIHYRKTDAKRLHGLDEEAEQKLFSEKRVKLLKELSRKPDIYERLASALAPSIYEHEDIKKGILLQLFGGTRKDFSHTGRGKFRAEINILLCGDPGTSKSQLLQYVYNLVPRGQYTSGKGSSAVGLTAYVMKDPETRQLVLQTGALVLSDNGICCIDEFDKMNESTRSVLHEVMEQQTLSIAKAGIICQLNARTSVLAAANPIESQWNPKKTTIENIQLPHTLLSRFDLIFLMLDPQDEAYDRRLAHHLVSLYYQSEEQVEEEFLDMAVLKDYIAYAHSTIMPRLSEEASQALIEAYVNMRKIGSSRGMVSAYPRQLESLIRLAEAHAKVRFSNKVEAIDVEEAKRLHREALKQSATDPRTGIVDISILTTGMSATSRKRKEELAEALRKLILSKGKTPALKYQQLFEDIRGQSDTAITKDMFEEALRALADDDFLTVTGKTVRLL
Regarding B3, the binding result in test [3] is listed as “no binding”; in test [4], “binds”.
